Experimental data as given in PubChem BioAssay AID894 (National Center for Advancing Translational Sciences (NCATS), 2007).
Several values for one entry are separate records, joined by “and”; a condition that tells them apart may be missing. Identical values can stand only once. The campaign covered roughly 150,000 compounds. About 6,500 (4.3%) were called active. The inconclusive results got no clear call from the source; some entries with a clear call stand among them for comparison. Calls come from the whole dose curve; as a rule, active = well fitted inhibition curve with a large enough effect (not every such curve was filed as active); inconclusive = small, poorly fitted or top-dose-only effect, or another doubt; inactive = no such curve, though single readings can be large or run the other way. Potencies beside an inconclusive call are fits to weak or partial responses and may not hold up.

The compounds below were run against 15-hydroxyprostaglandin dehydrogenase [NAD(+)] (Homo sapiens) (UniProt P15428) (assay: qHTS Assay for Inhibitors of HPGD (15-Hydroxyprostaglandin Dehydrogenase)). Details: purified HPGD, NADH fluorescence kinetic, PGE2 substrate; activity change, negative = inhibition: stronger effect = lower value.
Sequence of UniProt P15428 (P15428 whole entry, looked up): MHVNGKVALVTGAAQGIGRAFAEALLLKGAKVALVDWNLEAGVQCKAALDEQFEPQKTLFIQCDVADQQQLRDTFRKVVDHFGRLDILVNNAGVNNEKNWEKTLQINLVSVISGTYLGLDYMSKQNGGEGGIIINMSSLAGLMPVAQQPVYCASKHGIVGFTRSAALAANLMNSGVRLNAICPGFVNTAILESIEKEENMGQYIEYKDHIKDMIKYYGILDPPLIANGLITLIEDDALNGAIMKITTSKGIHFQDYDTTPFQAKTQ
In short: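 NADH formation kinetics: reaction with 30 uM PGE2 and 1 mM NAD+ (final), 20 nM enzyme, Tris-HCl pH 8 with Tween 20, after 15 min compound preincubation at room temperature. Fluorescence change, last versus first of five reads.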
% is set by controls: 0 for no effect and ±100 for the full control effect; potency is the fitted concentration of half-maximal effect; tags give direction and shape of the fitted curve.

Potency, active:
O=[N+]([O-])c1cc(Cc2ccccc2)cc(C=Nc2ccc(N3CCOCC3)cc2)c1O 5.01 µM
CC(C)Cc1csc(NC(=O)c2ccc(Cl)cc2)c1C(=O)O 17.8 µM
N/C(=N\OC(=O)N1c2ccccc2Sc2ccccc21)c1ccccc1 17.8 µM
CCC(=O)OCCNc1cc(Sc2nc3ccccc3s2)c2nonc2c1[N+](=O)[O-] 3.16 µM
COc1ccccc1-n1c(C)c2c(OC)cccc(=O)c2c1C 11.2 µM
Cc1ccc(C(=O)Nc2sc(C)c(-c3ccccc3)c2C(N)=O)cc1[N+](=O)[O-] 25.1 µM
CCOc1ccccc1C(=O)NCc1ccco1 22.4 µM
CCN(CC)c1ccc(NC(=O)c2ccccc2)cc1S(=O)(=O)Nc1ccccc1OC 1.78 µM
C/C=C/CSc1nc2c(c(=O)[nH]c(=O)n2C)n1Cc1ccc(C)cc1 17.8 µM

Potency, inconclusive:
Cc1c(C(=O)Nc2ccc(OC(F)(F)F)cc2)sc2nc3n(c(=O)c12)CCC3 35.5 µM [inhibitor, single point]
CCC1CCc2c(sc(NC(=O)CSc3nc(-c4ccco4)cc(C(F)(F)F)n3)c2C#N)C1 (centres undefined) 35.5 µM [inhibitor, single point]
CCOC(=O)Nc1nnc(-c2ccc(OC)c(OC)c2)s1 25.1 µM [inhibitor, partial curve]
Cc1ccc(-c2nc(C#N)c(N3CCCCC3)o2)cc1 28.2 µM [inhibitor, partial curve]
COc1ccc2[nH]c3c(NCCN(C(C)C)C(C)C)ncnc3c2c1 31.6 µM [inhibitor, partial curve]
COc1ccc(-c2cc(C(N)=O)nc(N3CCCCCC3)n2)cc1 12.6 µM [inhibitor, partial curve]
CC(=O)/C(=N\Nc1ccc(Cl)cc1)Sc1nnc(-c2ccccc2)n1-c1ccccc1 35.5 µM [inhibitor, single point]
N#Cc1c(N)sc(=S)c2c1CCN(Cc1ccccc1)C2 28.2 µM [inhibitor, partial curve]
Cc1sc(NC(=O)/C=C/c2ccc(C(C)C)cc2)c(C#N)c1C 39.8 µM [inhibitor, single point]
Cn1cccc1CC(=O)N/N=C\c1cccs1 5.01 µM [inhibitor, partial curve]
Cc1cnc(NC(=O)c2cc3c(C)nn(Cc4ccccc4Cl)c3s2)s1 25.1 µM [inhibitor, single point]
Cc1c(NC(=O)c2ccc(=O)oc2)c(=O)n(-c2ccccc2)n1C 17.8 µM [inhibitor, partial curve]
CS(=O)(=O)c1sc2nc(-c3cccs3)cc(-c3ccccc3)c2c1N 17.8 µM [inhibitor, partial curve]
COc1cccc(Cn2c(=O)c(-c3ccccc3)nc3cnc(N(C)C)nc32)c1 3.98 µM [inhibitor, full curve]
CCC(C)[C@H](NC(=O)OC(C)(C)C)C(=O)N/N=C/C1=Cc2ccccc2OC1 (some centres undefined) 25.1 µM [inhibitor, partial curve]
COc1ccc(-c2nc3cnc(N4CCNCC4)nc3n(-c3ccccc3)c2=O)cc1 28.2 µM [inhibitor, partial curve]
CCN(CC)CCNC(=O)CCCCCn1c(=O)[nH]c2cc(C(=O)OC)ccc2c1=O 31.6 µM [inhibitor, partial curve]
CCCCn1c(=NC(=O)c2cccnc2)c(C(=O)OCC)cc2c(=O)n3ccccc3nc21 28.2 µM [inhibitor, partial curve]
CSc1nc(N(CCO)CCO)c2sc3nc(-c4ccco4)c4c(c3c2n1)CCC4 11.2 µM [inhibitor, partial curve]
Cc1cc(=O)oc2cc(OCC3CC(c4ccccc4Cl)=NO3)ccc12 (centres undefined) 28.2 µM [inhibitor, partial curve]
CN(C)S(=O)(=O)Nc1ccc2c(c1)OCO2 25.1 µM [inhibitor, partial curve]
Cc1ccc(CN(c2ccc(C(=O)N3CCc4ccccc4C3)cc2)S(C)(=O)=O)cc1 28.2 µM [inhibitor, single point]
Cc1ccc2nc3nc(NCC4CCCO4)c(C(=O)NC4CCCC4)cc3c(=O)n2c1 (centres undefined) 3.98 µM [inhibitor, full curve]
Cc1ccccc1OCCNc1cc(N2CCN(CCO)CC2)ccc1[N+](=O)[O-] 31.6 µM [inhibitor, partial curve]
O=C(CSc1n[nH]c(-c2ccc(S(=O)(=O)NC3CCCCC3)cc2)n1)N1CCCC1 28.2 µM [inhibitor, partial curve]
Cc1ccccc1Cn1ccc(NC(=O)c2cc3nc(-c4ccco4)cc(C(F)(F)F)n3n2)n1 25.1 µM [inhibitor, partial curve]
CCn1c(/C=N/Nc2ccc(C(=O)O)cc2)nc2ccccc21 31.6 µM [inhibitor, single point]
COc1ccc(-c2cc(C(=O)N3CCOCC3)c3cc(C)ccc3n2)cc1 28.2 µM [inhibitor, partial curve]
Cc1ccccc1NC(=O)Cc1c(O)c2ccccc2[nH]c1=O 31.6 µM [inhibitor, single point]
COc1ccc(COc2cc(-c3cccc(OC)c3)nc3ccc(NC(=O)c4ccc(N(C)C)cc4)cc23)cc1 11.2 µM [inhibitor, partial curve] and 25.1 µM [inhibitor, partial curve]
O=C(/C=C/c1ccc2c(c1)OCO2)NCc1ccc(F)cc1 28.2 µM [inhibitor, partial curve]
CCNC(=S)NNC(=O)c1cc(-c2ccccc2C)nc2ccccc12 39.8 µM [inhibitor, partial curve]
COc1cc(NC(=O)c2cccs2)c(OC)cc1NC(=O)c1ccco1 7.94 µM [inhibitor, full curve]
O=C(Nc1cccnc1)c1ccc(NC(=O)c2ccco2)cc1 44.7 µM [inhibitor, single point]
Cc1nnc(SCC(=O)Nc2nsc(-c3ccc(Cl)cc3)n2)s1 25.1 µM [inhibitor, single point]
CC(C)C(OC(=O)CN1C(=O)COc2ccccc21)C(=O)NC1CCCC1 (centres undefined) 7.08 µM [inhibitor, single point]
O=C(c1cc2nc(-c3ccco3)cc(C(F)(F)F)n2n1)N1CCCc2ccccc21 12.6 µM [inhibitor, partial curve]
C/C=C(/C)C(=O)OC1c2c(ccc3ccc(=O)oc23)OC(C)(C)C1OC(C)=O (centres undefined) 35.5 µM [inhibitor, single point]
Cc1ccc(N/N=C(\Cc2nc3ccccc3[nH]2)c2ccccc2)cc1 39.8 µM [inhibitor, partial curve, poor fit]
CCOc1ccc(-c2nc(=S)[nH][nH]2)cc1 14.1 µM [inhibitor, partial curve]
O=[N+]([O-])c1cc(-c2ccc(/C=N/c3nc4ccccn4c3-c3ccco3)o2)ccc1Cl 39.8 µM [inhibitor, partial curve]

Activity change, negative = inhibition, inactive:
Cc1cc(C)c(S(=O)(=O)N2CCC(C(=O)NCc3ccco3)CC2)c(C)c1 -7.18%
COc1ccc(/C=C/C(=O)Nc2cccc(C(C)=O)c2)cc1 -18.2%
Cc1cccc(C(c2c(C)nn(-c3ccccc3)c2N)c2c(C)nn(-c3ccccc3)c2N)c1 -3.04%
CCCC(C)n1[nH]c(=O)cc1N (centres undefined) -6.65%
Nn1c(N2CCCCC2)nc2ccccc21 -4.4%
CC1CCCCC1NC(=O)c1cn(C)c2ccc(S(=O)(=O)N3CCCC3)cc2c1=O (centres undefined) -1.88%
CCCCCCCCCCCCSCCOCCO -5.96%
Cc1cc(C(=O)COC(=O)c2ccc[nH]c2=O)c(C)n1-c1ccc(Br)cc1 -12.3%
COc1ccc(F)cc1S(=O)(=O)Nc1cccc(C(=O)O)c1 -3.95%
CCC(CC)C(=O)Nc1cccc(C(=O)N2CCCC2)c1 -4.19%
Clc1ccc(CSc2ncnc3nc[nH]c23)cc1 -8.82%
CC(C)OC(=O)NC(C)(C)COC(=O)Nc1cccc(Cl)c1 1.27%
O=C(Nc1nc2c(s1)CCCC2=O)c1cnccn1 -14.2%
CCCNC(=O)c1cc(C)no1 -5.74%
CC(Oc1ccccc1)C(=O)Nc1ccc(S(=O)(=O)NCC2CCCO2)cc1 (centres undefined) -5.74%
COc1ccccc1CNC(=O)C1CCN(S(=O)(=O)c2ccc3c(c2)OCCCO3)CC1 -14.7%
COc1ccc(C(C)=O)cc1CSCCC#N -2.68%
CC#CCN1c2ccccc2[C@]23C[C@@H](C(=O)OC)N(S(=O)(=O)c4ccc([N+](=O)[O-])cc4)C2=NC(C(=O)OC)=C(C(=O)OC)[C@H]13 -3.01%
C(=N\n1cnnc1)/c1cccc(Oc2ccccc2)c1 -1.03%
